Experimental data as given in publication PMC4336329 (PLoS ONE, 2015).
The campaign covered roughly 310,000 compounds. About 2,200 (0.71%) showed an effect of 50% or more. Effects have a minus sign here. The list shows a part of the results.

Each compound was assayed against human ether-à-go-go-related gene (hERG) potassium channel (human, UniProt Q12809) (assay: primary screen, population patch clamp on CHO cells stably expressing hERG).
Sequence of human ether-à-go-go-related gene (hERG) potassium channel (Q12809 whole entry, looked up): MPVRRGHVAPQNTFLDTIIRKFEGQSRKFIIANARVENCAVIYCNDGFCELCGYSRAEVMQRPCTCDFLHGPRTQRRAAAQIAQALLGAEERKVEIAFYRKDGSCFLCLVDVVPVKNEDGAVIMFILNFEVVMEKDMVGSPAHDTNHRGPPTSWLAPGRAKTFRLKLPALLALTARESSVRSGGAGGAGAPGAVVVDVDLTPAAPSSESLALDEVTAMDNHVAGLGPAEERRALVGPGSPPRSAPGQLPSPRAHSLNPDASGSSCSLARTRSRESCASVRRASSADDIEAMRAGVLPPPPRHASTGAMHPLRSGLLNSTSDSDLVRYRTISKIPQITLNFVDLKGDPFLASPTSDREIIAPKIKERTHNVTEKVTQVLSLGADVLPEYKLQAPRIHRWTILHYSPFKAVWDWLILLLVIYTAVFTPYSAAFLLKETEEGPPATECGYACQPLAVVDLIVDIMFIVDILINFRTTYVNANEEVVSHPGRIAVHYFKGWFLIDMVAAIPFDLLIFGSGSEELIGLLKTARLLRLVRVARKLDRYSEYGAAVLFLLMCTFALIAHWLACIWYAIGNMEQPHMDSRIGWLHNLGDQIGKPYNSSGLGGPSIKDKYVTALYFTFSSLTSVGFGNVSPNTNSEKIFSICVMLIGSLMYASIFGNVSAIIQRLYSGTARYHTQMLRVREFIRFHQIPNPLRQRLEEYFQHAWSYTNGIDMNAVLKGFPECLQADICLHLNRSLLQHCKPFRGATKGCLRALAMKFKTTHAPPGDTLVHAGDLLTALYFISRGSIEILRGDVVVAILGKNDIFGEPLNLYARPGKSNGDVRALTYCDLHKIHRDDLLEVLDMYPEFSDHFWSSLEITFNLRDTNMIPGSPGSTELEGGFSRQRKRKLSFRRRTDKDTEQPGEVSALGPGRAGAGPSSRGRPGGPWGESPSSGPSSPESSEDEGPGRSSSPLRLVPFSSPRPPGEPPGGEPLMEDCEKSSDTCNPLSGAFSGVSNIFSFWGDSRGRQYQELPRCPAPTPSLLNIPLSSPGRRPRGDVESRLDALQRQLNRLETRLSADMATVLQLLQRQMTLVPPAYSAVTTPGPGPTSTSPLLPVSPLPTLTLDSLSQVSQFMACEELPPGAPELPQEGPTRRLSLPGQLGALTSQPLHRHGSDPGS

SMILES | hERG current change (%, negative = inhibition) at 1uM [%]
Cc1ccccc1NC(=O)CSC1=C(C#N)C(c2ccsc2)CC(=O)N1 (centres unmarked) | -0.704
N#C/C(=C\c1c(N2CCCCC2)nc2ccccn2c1=O)C(=O)NC1CCS(=O)(=O)C1 (centres unmarked) | 4.73
COc1ccc(/C=N/NC(=O)c2c([N+](=O)[O-])c(C)nn2C)cc1 | 13.2
CC(C)c1ccc(NC(=O)C2CCN(S(=O)(=O)c3ccc4c(c3)NC(=O)CO4)CC2)cc1 | 11.3
CCOC(Cn1c(SCC(=O)Nc2cc(C)on2)nc2ccccc2c1=O)OCC | 11.5
COC(=O)C1=C(C)Nc2ccc(C)cc2S1 | 4.01
COc1ccc(N2CC(NC(=O)N3CCc4ccccc43)CC2=O)cc1OC (centres unmarked) | 8.85
CC(c1nccs1)N(C)c1nc2nonc2nc1NC1CC1 (centres unmarked) | 10.6
Cc1occc1C(=O)N/N=C/C(Br)=C\c1ccccc1 | 8.24
CCN(CCCNS(=O)(=O)c1ccc2c(c1)oc(=O)n2C)c1cccc(C)c1 | 11.5
COc1ccc(S(=O)(=O)N2CCC(NC(=O)Nc3ccc(C)cc3)CC2)cc1 | -1.05
CC(=O)Nc1ccc(S(=O)(=O)N(C2=NCC(C)S2)c2ccccc2)cc1 (centres unmarked) | 0.86
CN(c1ccc(OCC(=O)N2CCC(C(N)=O)CC2)cc1)S(=O)(=O)c1cccs1 | 8.43
Cc1cc(C)c2nc(SCC(=O)NNC(=O)c3ccco3)c(C)cc2c1 | 27.5
COc1ccc(/C=C2/SC(=S)N(n3c(C)ccc3C)C2=O)cc1 | 12.7
CC1(C)Cc2nc3scc(NC(=O)c4ccccc4)c3cc2CO1 | 12.6
Nc1ccccc1Nc1cc(-c2ccccc2)nn1-c1cccc(Cl)c1 | 13.9
Cc1cccc(-c2oc3ccccc3c2-c2ccc3c(c2)OCO3)c1 | 17.4
CC(C)(C)OC(=O)NCCCCC1=CC2=CC(=O)C(C)(OC(=O)c3ccco3)C(=O)C2=CO1 (centres unmarked) | 11
CC1Cc2ccccc2N1C(=O)CSC1=NCCS1 (centres unmarked) | 7.52
Cc1c(NC(=O)c2ccco2)cccc1C(=O)NN1C(=O)c2ccccc2C1=O | 6.72
C=CCOCC(O)CS(=O)(=O)Cc1ccc(Cl)cc1 (centres unmarked) | 13.9

SMILES | hERG current change (%, negative = inhibition) at 1uM [%]
CN1CCN(Cc2nc3ccccc3c(=O)n2Cc2nc(-c3ccccc3F)cs2)CC1 | -5.99
CCC(c1nnnn1Cc1ccc2c(c1)OCO2)N1CCN(c2ccc(F)cc2)CC1 (centres unmarked) | -4
CCCc1cnc(N2CCN(C(=O)c3ccc(F)cc3)CC2)nc1 | 1.22
CCN(C(=O)CSc1nnc(-c2ccccc2Cl)n1C1CCCC1)C1CCS(=O)(=O)C1 (centres unmarked) | 12.2
O=C1C2C3C=CC(C4CC34)C2C(=O)N1/N=C/c1ccc(-c2cccc([N+](=O)[O-])c2)o1 (centres unmarked) | -1
CCC(=O)c1ccc(OCC(=O)N(CC)CC(=O)Nc2ccccc2OC)cc1 | 10.4
Cc1cccc(NC(=O)CCCN2C(=O)c3ccccc3C2=O)n1 | 10.1
Cc1onc(-c2ccccc2)c1C(=O)N=C(N)c1ccc(Cl)cc1 | 7.47
Cc1ccc(C(=O)COC(=O)CCN2C(=O)C3C4C=CC(C5CC45)C3C2=O)cc1 (centres unmarked) | -0.904
COc1ccc(-c2csc3nc(C)n(-n4cccc4)c(=O)c23)cc1OC | 5.06
CCn1ccnc1CN(C)C(=O)C1CCC(=O)N(Cc2cccc(F)c2)C1 (centres unmarked) | 10.1
CC(=O)Nc1ccc(NC(=O)Cc2ccc(F)cc2)cc1 | 10.9
C=CCNC(=O)CC(=O)N/N=C/c1cccs1 | -1.62
COc1ccc(CN2C(=O)CC(C(=O)NCCc3ccc(S(N)(=O)=O)cc3)SC2=Nc2ccccc2)cc1 (centres unmarked) | 17.9
COC(=O)c1c(NC(=O)COC(=O)c2ccccc2O)sc2c1CCCCC2 | 5.97
CC(=O)N1CCCc2cc(S(=O)(=O)NC(C(=O)NCc3ccc(C)cc3)C(C)C)ccc21 (centres unmarked) | 3.08
Cn1nnnc1SCC(=O)Nc1cc(C(F)(F)F)ccc1N1CCOCC1 | -0.0845
COc1ccccc1N1CCN(C(=O)CSc2nnc(-c3ccoc3C)o2)CC1 | 0.342
COc1ccc(C)cc1S(=O)(=O)N1CCC2(CC1)OCCN2S(=O)(=O)c1ccccc1 | 10.7
CN(C)CCN(C(=O)C1CCCCC1)c1nc2cc3c(cc2s1)OCO3.Cl | 14.3
Cc1ccccc1-c1nc(CS(=O)(=O)CC(=O)NCCCN2CCN(C)CC2)c(C)o1 | 4.32
COCCNC(=O)CC(=O)N/N=C/c1cccc(C(=O)OC)c1 | 14.5

SMILES | hERG current change (%, negative = inhibition) at 1uM [%]
CCOc1ccc(NC(=O)CN(C)C(=O)c2cccnc2Sc2ccccc2Cl)cc1OCC | 11.8
Cc1cs/c(=N\N=C\c2ccccc2)n1Cc1ccco1 | 14.3
O=C(c1ccccc1NS(=O)(=O)c1cccc([N+](=O)[O-])c1)N1CCOCC1 | 0.676
Cc1ccc(C(=O)COC(=O)C(C)N2C(=O)C3C4C=CC(C4)C3C2=O)cc1 (centres unmarked) | 6.8
CCCN(CCC)CCCNS(=O)(=O)c1ccc2c(c1)oc(=O)n2C | 8.77
O=C(COc1ccccc1F)NNC(=O)c1cccc(-n2cccc2)c1 | 3.62
CCC(=O)c1ccc(OCC(O)CN2CCN(c3ccccn3)CC2)cc1 (centres unmarked) | 3.36
O=C(NC1CC2CCC(C1)N2Cc1ccccc1)c1ccccc1Br (centres unmarked) | 0.121
COc1ccccc1NC(=O)c1ccc(COc2ccccc2OC)cc1 | 12.6
Cc1ccnc2c1NC(=O)c1cccnc1N2C1CC1 | 8.83
O=C(COC(=O)c1cc([N+](=O)[O-])ccc1N1CCOCC1)NC1CCS(=O)(=O)C1 (centres unmarked) | 3.3
COc1cc(/C=C/c2ccc3cccc(OC)c3n2)c(OC(C)=O)c([N+](=O)[O-])c1 | 4.9
Cc1nn(-c2ccccc2)c(Cl)c1C1C(C#N)=C(N)Oc2c1c(=O)oc1ccccc21 (centres unmarked) | 17.4
O=C(CSc1ncccn1)NCCC1=CCCCC1 | 1.34
CCOC(=O)c1cc(=O)cc(C(=O)OCC)o1 | 7.17
O=C(c1ccco1)N1CCN(C(=O)C2CCN(S(=O)(=O)c3cnc[nH]3)CC2)CC1 | 13.4
CC1CN(S(=O)(=O)c2cccc(C(=O)Nc3ccccc3N3CCCC3)c2)CC(C)O1 (centres unmarked) | -1.77
COc1ccc(S(=O)(=O)Nc2cccc(-c3ccc(N4CCCCCC4)nn3)c2)cc1OC | 15.7
COc1cccc(C2Nc3c(F)cc(Br)cc3C3C=CCC32)c1OC (centres unmarked) | 11.5
CCOC(=O)N=Nc1c(O)n(C)c2ccccc12 | 3.96
COc1ccccc1CN1C[C@@H]2C[C@@H](c3ccc4nsnc4c3)N3CCC[C@@]23C1=O | -3.65
CC(NC(=O)CCNC(=O)c1ccc(Br)cc1)c1ccc(S(N)(=O)=O)cc1 (centres unmarked) | 16.1

SMILES | hERG current change (%, negative = inhibition) at 1uM [%]
COc1cccc(C(C(=O)NC2CCCC2)N(Cc2ccccc2OC)C(=O)c2ccco2)c1 (centres unmarked) | 6.31
O=C(/C=C/c1ccc(Br)cc1)NC(=S)N1C[C@H]2C[C@H](C1)c1cccc(=O)n1C2 | -21
CN(C)c1ccc(NC(=O)c2ccc(N3CCOCC3)nc2)cc1 | 4.43
CCOC(=O)[C@@H]1[C@H]2COc3ccccc3[C@@H]2N2C(=O)N(c3cccc(Cl)c3)C(=O)[C@]12C | -0.332
CC1=CC(C)(C)[N+](C)(C)c2ccccc21.[I-] | 17.4
COC(=O)C1CCN(C(=O)c2cc(S(=O)(=O)N3CCCCC3)ccc2Cl)CC1 | 8.73
O=S1(=O)NC(=NC2CCCCCC2)c2ccccc21 | 3.16
CCOC(=O)CC(=O)c1sc2c(c1N)c(=O)[nH]c(=O)n2-c1ccc(OC)cc1 | 13.8
Cc1ccc(S(=O)(=O)N2CCOCC2)cc1-c1n[nH]c(=S)n1-c1ccccc1 | 12.4
CC(=O)Oc1ccc2c(c1)cc(C)n2C | 13.4
Cc1ccc(C)c(NC(=O)COC(=O)CNC(=O)C2CCCCC2)c1 | 0.643
Cc1cc(C(=O)CSc2nnc(C3CC3)n2C2CC2)c(C)n1C(C)C | 11.6
Cn1c(/C=C/c2ccccc2[N+](=O)[O-])nc2ccccc2c1=O | 6.82
Cc1c(Cl)cccc1NC(=O)CSc1sc2c(O)cc(=O)[nH]c2c1C#N | 2.77
CCOC(=O)c1sc(NC(=S)NC(=O)c2ccccc2)nc1C | 14.2
COCCNCC(=O)N1CCCCCC1.O=C(O)C(=O)O | 1.18
Cc1ccc(CSc2nnc(-c3ccncc3)n2CC2CCCO2)cc1 (centres unmarked) | 10.8
Oc1ccc2ccccc2c1CNc1ccccn1 | 15.6
Cn1c(O)c(C=NC2CC3CCC2(C)C3(C)C)c(=O)[nH]c1=O (centres unmarked) | 8.6
CCCC1C2C(=O)N(c3ccccc3OCC)C(=O)C2ON1c1ccccc1 (centres unmarked) | 13.6
